{"sequences": {"note": "Amino acid sequences for entries named in this document (tags omitted). A change or cut given only in a name is not applied to a line headed by its entry. Chains listed by the source or under a name are the forms on record and can include a tag or linker. Residues count along the entry.", "UniProt Q6PER3": "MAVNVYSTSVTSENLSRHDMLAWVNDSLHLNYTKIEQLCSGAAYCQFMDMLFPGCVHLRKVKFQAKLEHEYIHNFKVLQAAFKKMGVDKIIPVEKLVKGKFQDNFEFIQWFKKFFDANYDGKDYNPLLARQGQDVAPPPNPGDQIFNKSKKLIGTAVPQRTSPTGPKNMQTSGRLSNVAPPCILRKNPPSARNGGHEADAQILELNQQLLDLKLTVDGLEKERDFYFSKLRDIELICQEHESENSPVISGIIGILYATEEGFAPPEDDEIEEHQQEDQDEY", "UniProt Q9P246": "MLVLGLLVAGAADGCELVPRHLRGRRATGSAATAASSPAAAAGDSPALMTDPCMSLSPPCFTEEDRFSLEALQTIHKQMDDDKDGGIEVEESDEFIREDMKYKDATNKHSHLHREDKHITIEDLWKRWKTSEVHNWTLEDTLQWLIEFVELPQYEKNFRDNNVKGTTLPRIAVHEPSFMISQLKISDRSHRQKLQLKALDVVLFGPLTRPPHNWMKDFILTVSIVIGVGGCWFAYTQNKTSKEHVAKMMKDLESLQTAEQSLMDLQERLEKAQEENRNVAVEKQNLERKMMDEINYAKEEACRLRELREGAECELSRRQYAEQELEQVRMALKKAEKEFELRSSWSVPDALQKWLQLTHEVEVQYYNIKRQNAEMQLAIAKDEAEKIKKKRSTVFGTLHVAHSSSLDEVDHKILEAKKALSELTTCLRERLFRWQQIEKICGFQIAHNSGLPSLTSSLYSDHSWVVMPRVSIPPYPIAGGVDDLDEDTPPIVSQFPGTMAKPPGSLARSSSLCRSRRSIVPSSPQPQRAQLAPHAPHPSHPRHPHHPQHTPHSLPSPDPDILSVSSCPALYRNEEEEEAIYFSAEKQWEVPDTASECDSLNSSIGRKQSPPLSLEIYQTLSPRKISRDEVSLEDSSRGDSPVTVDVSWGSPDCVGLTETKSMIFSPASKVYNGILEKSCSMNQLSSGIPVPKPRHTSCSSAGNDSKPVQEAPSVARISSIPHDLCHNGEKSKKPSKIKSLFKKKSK", "GST-STIM2-CT (wild type STIM2 cytoplasmic part, aa248-C terminal)": "residues 248-746 of Q9P246", "YFP-STIM2-IP/NN (I688N, P689N) (Q9P246, form named)": "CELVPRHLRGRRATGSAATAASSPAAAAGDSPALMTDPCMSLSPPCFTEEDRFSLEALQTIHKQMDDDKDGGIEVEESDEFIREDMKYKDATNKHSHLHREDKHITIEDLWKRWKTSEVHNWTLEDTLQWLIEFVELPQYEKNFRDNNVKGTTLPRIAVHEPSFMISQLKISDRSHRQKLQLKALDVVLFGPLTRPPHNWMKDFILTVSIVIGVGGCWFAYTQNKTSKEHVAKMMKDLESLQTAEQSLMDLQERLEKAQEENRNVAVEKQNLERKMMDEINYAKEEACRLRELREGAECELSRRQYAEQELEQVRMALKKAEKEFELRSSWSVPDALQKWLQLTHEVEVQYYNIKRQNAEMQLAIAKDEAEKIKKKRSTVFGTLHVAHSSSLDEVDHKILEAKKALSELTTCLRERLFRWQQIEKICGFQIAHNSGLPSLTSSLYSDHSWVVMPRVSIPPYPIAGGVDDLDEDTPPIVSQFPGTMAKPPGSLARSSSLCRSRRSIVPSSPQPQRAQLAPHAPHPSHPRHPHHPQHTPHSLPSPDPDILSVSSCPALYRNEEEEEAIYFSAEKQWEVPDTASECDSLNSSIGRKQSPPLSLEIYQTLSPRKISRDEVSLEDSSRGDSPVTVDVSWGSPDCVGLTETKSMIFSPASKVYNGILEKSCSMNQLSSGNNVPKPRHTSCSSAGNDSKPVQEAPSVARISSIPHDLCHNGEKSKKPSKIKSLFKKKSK", "GST-STIM2-IP/NN-CT (I688N, P689N) (Q9P246, form named)": "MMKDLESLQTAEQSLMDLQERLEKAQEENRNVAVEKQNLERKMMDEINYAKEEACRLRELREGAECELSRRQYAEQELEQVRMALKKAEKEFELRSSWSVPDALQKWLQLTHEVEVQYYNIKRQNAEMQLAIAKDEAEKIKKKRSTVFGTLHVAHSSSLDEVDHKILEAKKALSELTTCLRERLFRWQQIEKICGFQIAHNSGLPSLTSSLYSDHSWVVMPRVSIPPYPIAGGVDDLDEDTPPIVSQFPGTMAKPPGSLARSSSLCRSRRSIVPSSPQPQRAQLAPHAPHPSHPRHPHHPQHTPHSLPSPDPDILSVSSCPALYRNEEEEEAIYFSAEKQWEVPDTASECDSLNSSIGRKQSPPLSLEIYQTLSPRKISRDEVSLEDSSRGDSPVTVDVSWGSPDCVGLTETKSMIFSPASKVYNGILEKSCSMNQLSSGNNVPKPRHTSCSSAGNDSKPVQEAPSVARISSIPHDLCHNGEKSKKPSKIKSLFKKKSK", "UniProt P83093, residues 15-746": "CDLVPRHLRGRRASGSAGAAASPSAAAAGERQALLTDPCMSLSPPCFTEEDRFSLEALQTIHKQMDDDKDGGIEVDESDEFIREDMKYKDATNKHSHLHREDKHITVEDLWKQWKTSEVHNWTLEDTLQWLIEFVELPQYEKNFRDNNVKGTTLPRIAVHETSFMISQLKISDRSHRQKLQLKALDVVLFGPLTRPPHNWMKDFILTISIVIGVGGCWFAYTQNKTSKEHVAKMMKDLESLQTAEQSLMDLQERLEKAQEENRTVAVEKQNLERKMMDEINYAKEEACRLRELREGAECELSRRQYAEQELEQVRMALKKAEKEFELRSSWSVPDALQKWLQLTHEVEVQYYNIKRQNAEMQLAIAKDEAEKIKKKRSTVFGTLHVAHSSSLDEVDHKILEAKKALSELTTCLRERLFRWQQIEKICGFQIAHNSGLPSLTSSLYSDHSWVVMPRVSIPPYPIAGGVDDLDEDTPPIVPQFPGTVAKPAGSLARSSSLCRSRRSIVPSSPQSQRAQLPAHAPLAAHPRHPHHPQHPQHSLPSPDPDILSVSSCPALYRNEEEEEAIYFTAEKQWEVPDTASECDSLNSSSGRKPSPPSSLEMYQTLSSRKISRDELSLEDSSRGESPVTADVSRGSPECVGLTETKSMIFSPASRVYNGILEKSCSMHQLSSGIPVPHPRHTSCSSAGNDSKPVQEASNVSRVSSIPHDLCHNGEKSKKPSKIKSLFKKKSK"}, "source": "paper PMC5732248", "key": {"[1]": {"molecular_target": "FLAG-EB3 (mouse) (UniProt Q6PER3)", "assay": "co-IP; HEK293T cells transfected with FLAG-EB3 and YFP-STIM2 or YFP-STIM2-IP/NN, preincubated 10 minutes in aCSF containing 2 mM Ca2+ (-Tg), RIPA lysate; anti-EB3 on Protein A/G agarose; blot with anti-STIM2 and anti-FLAG"}, "[2]": {"molecular_target": "GST-STIM2-IP/NN-CT (I688N, P689N) (UniProt Q9P246)", "assay": "pull-down; GST-fusion proteins immobilized on glutathion-agarose beads, incubated overnight at 4 °C with crude whole brain synaptosomal lysate (1% Triton, 130 mM NaCl, 50 mM Tris, pH 7.2); blot with anti-EB3; only the target purified"}, "[3]": {"molecular_target": "GST-STIM2-CT (wild type STIM2 cytoplasmic part, aa248-C terminal) (UniProt Q9P246)", "assay": "pull-down; GST-fusion proteins immobilized on glutathion-agarose beads, incubated overnight at 4 °C with crude whole brain synaptosomal lysate (1% Triton, 130 mM NaCl, 50 mM Tris, pH 7.2); blot with anti-EB3; only the target purified"}, "[4]": {"molecular_target": "FLAG-EB3 (mouse) (UniProt Q6PER3)", "assay": "condition: only cells incubated in Ca2+-free aCSF with 400 µM EGTA and 1 µM Thapsigargin for 10 minutes before lysis; co-IP; HEK293T cells transfected with FLAG-EB3 and YFP-STIM2, preincubated 10 minutes in Ca2+-free aCSF with 400 µM EGTA and 1 µM Thapsigargin (+Tg, ER calcium store depletion), RIPA lysate; anti-EB3 on Protein A/G agarose; blot with anti-STIM2 and anti-FLAG"}, "[5]": {"molecular_target": "EB3 protein (mouse (endogenous in brain synaptosomes)) (UniProt Q6PER3)", "assay": "co-IP; whole brain crude synaptosomal fraction (P2) solubilized in RIPA lysis buffer; rabbit polyclonal anti-EB3 or control rabbit serum on Protein A/G agarose, lysate overnight at 4 °C; blot with anti-STIM2"}}, "note": "These are yes or no findings as the source states them, for the method shown. Binding seen in cells or lysates may run through a third protein. Some results given as binding are weak or reduced against the parent protein; the word gives no strength."}
{"substance": "YFP-STIM2-IP/NN (I688N, P689N) (from UniProt Q9P246 15-746)", "values": [{"measurement": "binding", "setting": "[1]", "value": "no binding"}]}
{"substance": "EB3 protein (from UniProt Q6PER3 1-281)", "values": [{"measurement": "binding", "setting": "[2]", "value": "no binding"}, {"measurement": "binding", "setting": "[3]", "value": "binds"}]}
{"substance": "YFP-STIM2 (from UniProt Q9P246 15-746)", "values": [{"measurement": "binding", "setting": "[4]", "value": "no binding"}, {"measurement": "binding", "setting": "[1]", "value": "binds"}]}
{"substance": "STIM2 protein (from UniProt P83093 15-746)", "values": [{"measurement": "binding", "setting": "[5]", "value": "binds"}]}
